Laboratory results published in PubChem BioAssay (NCI).
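Cultured in 96-well plates, cells were exposed to test compound for 48 hours across five concentrations. The concentration for 50% growth inhibition is given as GI50.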 For part of its entries the source gives two or more results. This is not the full list of results. There may be further records. For part of these data: A record mostly stands for its own series of concentrations, which the source does not state; some values may only mark the edge of a range. For part of these data: The values listed for one entry are repeats (runs, samples, wells, individuals or studies). A tag in brackets gives the origin of a value. The letters are not those of the source and start again with each entry.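 Definition used: TGI = concentration required for complete inhibition of growth.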

What was measured:
Assay in all cases: growth of human tumour cells (NCI), 48 h
[1] = system: NCI-H226 lung
[2] = system: SW-620 colon
[3] = system: HS 578T breast
[4] = system: SNB-75 CNS
[5] = system: SN12C renal
[6] = system: SR leukemia
[7] = system: HL-60(TB) leukemia
[8] = system: A549 NSCLC
[9] = system: K-562 leukemia
[10] = system: MCF7 breast
[11] = system: SK-OV-3 ovarian
[12] = system: NCI-H522 lung
[13] = system: SK-MEL-5 melanoma
[14] = system: DU-145 prostate
[15] = system: MDA-N
[16] = system: T-47D breast
[17] = system: RXF 393 renal
[18] = system: NCI/ADR-RES ovarian
[19] = system: OVCAR-8 ovarian
[20] = system: TK-10 renal
[21] = system: U251 CNS
[22] = system: CAKI-1 renal
[23] = system: SK-MEL-28 melanoma
[24] = system: COLO 205 colon
[25] = system: HOP-92 NSCLC
[26] = system: CCRF-CEM leukemia
[27] = system: SF-539 CNS
[28] = system: M14 melanoma
[29] = system: MDA-MB-231 breast
[30] = system: SF-295 CNS
[31] = system: KM12 colon
[32] = system: OVCAR-3 ovarian

CCCCCCCCCCCCC(=O)OC(c1cnco1)c1nc(C(O)CC(O)C(O)C(C)O)co1 (configuration not stated)
TGI [1]: 9.77 µM and > 100 µM

CCc1c2c(nc3cc4c(cc13)OCO4)-c1cc3c(c(=O)n1C2)COC(=O)[C@]3(O)CC
GI50 [2]: 2.19 nM and 36.4 nM
GI50 [3]: 9.06 µM and > 100 µM
GI50 [4]: < 1 nM and 32.9 nM
TGI [4]: 197 nM and > 100 µM
GI50 [5]: < 1 nM and 12.7 nM
TGI [6]: 14.9 nM and > 100 µM
TGI [7]: 1.73 nM and > 100 µM
GI50 [8]: < 1 nM and 11.8 nM
GI50 [9]: < 1 nM and 24.3 nM
TGI [10]: 911 nM and > 100 µM
GI50 [11]: 2.95 nM and 32.8 nM
TGI [11]: 6.52 µM and > 100 µM
GI50 [12]: 3.53 nM and 81.3 nM
TGI [12]: 9.41 µM and > 100 µM
GI50 [13]: < 1 nM and 11.4 nM
GI50 [14]: < 1 nM and 16.5 nM
GI50 [15]: 60.2 nM and 9.06 µM
TGI [16]: 5.99 nM and > 100 µM
GI50 [17]: 4.32 nM and 102 nM
GI50 [18]: < 1 nM and 12 nM
GI50 [19]: 2.27 nM and 49.9 nM
TGI [19]: 250 nM and > 100 µM
TGI [20]: 6.19 µM and > 100 µM
GI50 [21]: < 1 nM and 14.1 nM
TGI [21]: 63.1 nM and > 100 µM
TGI [22]: 1.48 µM and > 100 µM

CCCCCCCCCC[C@@H](O)[C@H]1CC[C@H]([C@H]2CC[C@H]([C@H](O)CCCCCCCCCC[C@@H]3CC(CC(C)=O)C(=O)O3)O2)O1 (some centres not stated)
TGI [18]: 4.23 µM and > 50 µM

CC(=O)Nc1cccc(-n2c(=O)n(C3CC3)c(=O)c3c(Nc4ccc(I)cc4F)n(C)c(=O)c(C)c32)c1
TGI [23]: 21 µM [sample A, mean of 2 tests] and 31.2 nM [sample B, mean of 2 tests]
GI50 [13]: < 13.3 nM [sample A, mean of 2 tests] and 276 nM [sample B, mean of 2 tests]
TGI [24]: 18.7 µM [sample A, mean of 2 tests] and 381 nM [sample B, mean of 2 tests]
TGI [25]: < 10 nM [sample A, mean of 2 tests] and 138 nM [sample B, mean of 2 tests]

COc1ccc2cc1Oc1ccc(cc1)C[C@H]1c3cc(c(OC)cc3CCN1C)Oc1c(OC)c(OC)cc3c1[C@H](C2)N(C)CC3
TGI [26]: 14.6 µM, 18.6 nM [sample A] and > 100 µM [sample B]
TGI [6]: 15.8 µM, 5.09 µM [sample A] and 93 µM [sample B]
TGI [27]: 10.6 µM, 4.05 µM [sample A] and 53.9 µM [sample B]
TGI [28]: 1.62 µM, 3.36 µM [sample A] and 69.7 µM [sample B]
TGI [29]: 13 µM, 5.34 µM [sample A] and 60.3 µM [sample B]

O=c1cc(-c2cccc(F)c2)[nH]c2cc3c(cc12)OCO3
TGI [7]: 75 µM and 370 nM
TGI [13]: 360 nM and 9.66 µM
TGI [30]: 390 nM and 7.21 µM
TGI [31]: 75 µM and 2.38 µM
TGI [32]: 75 µM and 70.8 nM
